Assay results: PubChem BioAssay AID938 (National Center for Advancing Translational Sciences (NCATS), 2007)
Several values for one entry are separate records, joined by “and”; a condition that tells them apart may be missing. Equal entries are not always repeated. Screen size: about 73,000 compounds; about 1,800 (2.5%) were called active. Inconclusive means that the source gave no clear call. Such entries were picked first, then a sample of the others. Calls come from the whole dose curve; as a rule, active = well fitted activation curve with a large enough effect; inconclusive = small, poorly fitted or top-dose-only effect; inactive = no such curve, though single readings can be large or run the other way. Potencies beside an inconclusive call are fits to weak or partial responses and may not hold up.

Test: qHTS Assay for Agonists of the Thyroid Stimulating Hormone Receptor: Activators of Intracellular cAMP Concentrations in Parental HEK 293; note: nearly all actives have a fitted effect of over 55% in size; for activation: % of control where 0% means no effect
Settings: parental HEK293 CNG cAMP sensor, membrane potential fluorescence; activation: at 57.1 µM (top of the series) unless noted
Method in brief: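 Counterscreen for endogenous-receptor signalling: CNG-channel HEK 293 cells report cAMP rise by membrane depolarization. After 60 min dye equilibration with 100 uM RO 20-1724, compounds incubated 30 min before bottom-read fluorescence at 590 nm.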
Potency is the fitted concentration of half-maximal effect; tags give direction and shape of the fitted curve.

Structure (SMILES) | Potency | activation
CCOC(=O)c1c(NC(=O)CSc2nc3cccnc3n2C)sc(C(C)=O)c1C | inconclusive: 5.01 µM [activator, partial curve] | 
COC(=O)CCn1nnc(-c2ccc(C(C)C)cc2)n1 |  | inactive: 12.4%
Cc1cc(NC(=O)CCCC(=O)N(CC(=O)NC2CCCCC2)c2ccccc2)no1 | inconclusive: 10 µM [activator, partial curve] | 
Cn1c(=O)c2sccc2n2c(CCCC(=O)NCc3ccc4c(c3)OCO4)nnc12 | inconclusive: 20 µM [activator, partial curve] | 
COC(=O)[C@@]1(Cc2ccc(F)cc2)[C@H]2c3cc(C(=O)N4CCCC4)n(CCc4ccc(OC)c(Br)c4)c3C[C@H]2CN1C(=O)c1ccccc1 | inconclusive: 10 µM [activator, partial curve] | 
Cn1c(=O)c2ncn(CC(=O)Nc3ccc4c5c(cccc35)CC4)c2n(C)c1=O |  | inactive: 0.211%
COC(=O)C1Cc2c([nH]c3ccccc23)C(C)N1 (stereo unspecified) | inconclusive: 3.98 µM [activator, partial curve] | 
COc1ccc(CNC(=O)c2cc3c(C)nc4ccccc4c3o2)c(OC)c1 | inconclusive: 7.94 µM [activator, full curve] | 
N#CC(C(=O)NCc1ccccc1)c1nc2ccccc2nc1N1CCCC1 (stereo unspecified) | inconclusive: 5.01 µM [activator, full curve, poor fit] | 
CSCSC1=C(C#N)C(c2ccc(Cl)cc2)C(C(C)=O)=C(C)N1 (stereo unspecified) | active: 25.1 µM | 
Cc1ccc(C)c(NC(=O)Cn2nnc(C(=O)Nc3c(C)cccc3C)c2N)c1 | inconclusive: 3.98 µM [activator, single point] | 
COC(=O)/C=C(\C)NC(=O)c1ccccc1Cl | inconclusive: 39.8 µM [activator, single point] | 
O=C(c1cnn2c(C(F)(F)F)cc(-c3ccc4c(c3)OCO4)nc12)N1CCCCC1 | active: 20 µM | 
COC(=O)c1ccc2c(=O)n(CCC3=CCCCC3)c(SCC(=O)N3CCCC3)nc2c1 | inconclusive: 10 µM [activator, partial curve] | 
CN(C(=O)c1ccccc1C(=O)c1ccccc1)C1CCS(=O)(=O)C1 (stereo unspecified) | inconclusive: 6.31 µM [activator, single point] | 
CCOc1cc(-c2c(C#N)c(N)nc3c2CCCC3)ccc1O | inconclusive: 12.6 µM [activator, partial curve] | 
FC(F)(F)c1ccccc1-c1nc(N2CCOCC2)c2ccccc2n1 | active: 1 µM | 
CCOC(=O)c1ccccc1NC(=O)c1ccccc1SC | inconclusive: 25.1 µM [activator, single point] | 
O=C(OCc1ccc2c(c1)OCO2)c1ccc(S(=O)(=O)N2CCCCC2)cc1 | inconclusive: 6.31 µM [activator, partial curve] | 
Cc1cnc(CNc2cc(-c3cccc(C#N)c3)ncn2)cn1 |  | inactive: 8.21%
CN(C)c1ncc2nc(-c3cc(F)cc(F)c3)c(=O)n(Cc3cccs3)c2n1 | inconclusive: 5.01 µM [activator, partial curve, poor fit] | 
Cc1nc(CNS(=O)(=O)c2ccccc2F)cs1 |  | inactive: 0.302%
COc1cc(C2CC(=O)c3cnc(NC(=O)COc4ccccc4)nc3C2)cc(OC)c1OC (stereo unspecified) |  | inactive: -1.37%
c1ccc(COc2ccc(OCCOCCn3cncn3)cc2)cc1 |  | inactive: -1.44%

Structure (SMILES) | Potency | activation
CCOc1nc(C)ccc1-c1noc(-c2ccccc2OC)n1 | inconclusive: 1 µM [activator, partial curve] | 
COc1ccc(-n2c(C)nc3c(cnn3-c3ccc(Cl)cc3)c2=O)cc1 | inconclusive: 20 µM [activator, single point] | 
CC(=O)C1C(=O)C=C(c2ccco2)CC1c1ccccc1 (stereo unspecified) | inconclusive: 25.1 µM [activator, partial curve] | 
Cc1cc(C(=O)COc2ccc(-c3nnco3)cc2)c(C)n1Cc1ccccc1 | active: 12.6 µM | 
Cc1ccc2c(c1)nnn2C1CCN(S(=O)(=O)c2ccc(C(=O)N3CC(C)CC(C)C3)cc2)CC1 (stereo unspecified) | inconclusive: 31.6 µM [activator, single point] | 
CC[C@@H](c1ccccc1)n1c(=O)n2n(c1=O)[C@H]1[C@H](O)[C@H]3O[C@@H]3/C(=N/OCc3ccccc3)[C@@H]1CC2 |  | inactive: -2.94% [at 11.4 µM]
COC(=O)C/C=C\[C@@H](C)[C@@H](/C=N\OC[C@@H](O)COCc1ccco1)NS(=O)(=O)c1ccc(C)cc1 |  | inactive: -4.61% [at 11.4 µM]
Cc1ccc(O)c(C(=O)CC(=O)c2cccc(F)c2)c1 |  | inactive: 26.6% [at 11.4 µM]
Cc1sc2nc(SCC(=O)NCCOCCO)n(C)c(=O)c2c1C |  | inactive: -3.26% [at 11.4 µM]
CN(Cc1ccccc1)C(=O)c1ccccc1NC(=O)c1ccco1 |  | inactive: 9.76%
CCC(C)(C)NC(=O)C(OC(=O)c1cc2sccc2n1C)c1ccc(OC)cc1 (stereo unspecified) | inconclusive: 20 µM [activator, partial curve] | 
Cn1cccc1C(=O)NC(=O)CSc1nc2ccccc2s1 | inconclusive: 25.1 µM [activator, partial curve] | 
O=c1c2cccc3c2c(nn1CN1CCOCC1)-c1ccccc1-3 |  | inactive: 15%
COc1cccc2c(=O)n(CC(=O)N3CCCc4ccccc43)ccc12 |  | inactive: 8.14%
CC1=NS(=O)(=O)c2cc(Cl)ccc2N1 | inconclusive: 15.8 µM [activator, single point] and inconclusive: 25.1 µM [activator, single point] | 
Cc1ccc(-n2nnnc2SCC(=O)NCCC2=CCCCC2)c(C)c1 | active: 31.6 µM | 
c1csc(CNc2ncncc2-c2ccoc2)c1 |  | inactive: -0.803%
COC(=O)C1CCN(C(=O)COc2cc3sc(C)nc3c3sccc23)CC1 | inconclusive: 31.6 µM [activator, single point] | 
O=C(Nc1ccccc1-c1ccccc1)C1CCCN(c2ncccn2)C1 (stereo unspecified) | inconclusive: 15.8 µM [activator, partial curve] | 
COc1ccc2nc(N3CCCC(C(=O)NCCCN4CCN(C)CC4)C3)sc2c1 (stereo unspecified) |  | inactive: -4.82%
CN1CCN(c2ncc3nc(-c4cc(F)cc(F)c4)c(=O)n(C)c3n2)CC1 |  | inactive: 7.64%
CCOC(=O)c1c(-c2ccccc2)csc1NC(=O)CSc1nnnn1C | inconclusive: 39.8 µM [activator, single point] | 
Cc1nnc(N(Cc2ccco2)C(=O)c2ccno2)s1 |  | inactive: 3.12%
COC(=O)c1ccc(/C(O)=C(\C#N)c2nc3ccccc3s2)cc1 | inconclusive: 20 µM [activator, partial curve] | 

Structure (SMILES) | Potency | activation
COc1ccc(-c2nc(-c3ccccc3OC)no2)cc1OC | inconclusive: 39.8 µM [activator, single point] | 
Cc1cccc(N2CCN(C(=O)CS(=O)(=O)Cc3nc(-c4ccccc4F)oc3C)CC2C)c1 (stereo unspecified) | inconclusive: 15.8 µM [activator, partial curve] | 
CCc1nnc(NC(=O)c2ccc(S(=O)(=O)N3CCCCCC3)cc2)s1 |  | inactive: -1.37%
COc1cccc(Cn2c(=O)c(-c3cccs3)nc3cnc(N4CCOCC4)nc32)c1 |  | inactive: 27%
CCC(OC(=O)c1ccco1)C(=O)NCc1ccc(C)cc1 (stereo unspecified) | inconclusive: 1 µM [activator, full curve, poor fit] | 
COCCNC(=O)CN(C(=O)CCC(=O)Nc1cc(C)on1)c1ccc(C)cc1C | inconclusive: 5.01 µM [activator, single point] | 
COc1ccccc1N1CCN(C(=O)CSc2nc3ccccc3c(=O)n2CC2CCCO2)CC1 (stereo unspecified) | inconclusive: 20 µM [activator, partial curve] | 
NC(=O)c1cnn(Cc2ccc(Cl)cc2)c1N | inconclusive: 6.31 µM [activator, single point] | 
O=C(COC(=O)c1ccccc1NC(=O)c1ccco1)NCCC1=CCCCC1 | active: 25.1 µM | 
CCOC(=O)c1c(C)c(C(=O)N2CCc3ccccc3C2)c(C)n1CC | inconclusive: 3.98 µM [activator, full curve] | 
CC(C)Cn1c(=O)c2c(c3ccccc31)OC(C)C(=O)N2 (stereo unspecified) | inconclusive: 12.6 µM [activator, partial curve] | 
CC[C@](N)(CCC(=O)O)C(=O)O |  | inactive: 2.31%
CCCCCCSC1=C(C#N)C(c2ccc(O)cc2)CC(=O)N1 (stereo unspecified) |  | inactive: 16%
CCc1ccc(C(=O)CC2(O)C(=O)N(CN3CCOCC3)c3ccccc32)cc1 (stereo unspecified) | inconclusive: 25.1 µM [activator, single point] | 
COc1ccc(-c2cnc(SCC(=O)Nc3ccc4c(c3)OCO4)n2Cc2ccco2)cc1 | inconclusive: 3.98 µM [activator, partial curve] | 
OCCNc1ncnc2nc[nH]c12 |  | inactive: 0.21% [at 11.4 µM]
COc1ccccc1C1C=C(c2ccc(C)cc2)Nc2nnnn21 (stereo unspecified) | active: 25.1 µM | 
O=C(C1CCCCC1)N(Cc1ccccc1)c1ccccn1 |  | inactive: 14.4%
O=C(NC12CC3CC(CC(C3)C1)C2)c1cc2nc(-c3ccco3)cc(C(F)(F)F)n2n1 |  | inactive: -11%
COc1cccc(-c2nc(CS(=O)(=O)CC(=O)NCc3ccccc3)c(C)o2)c1 | inconclusive: 25.1 µM [activator, single point] | 
COc1ccc(NC(C)=O)cc1NC(=O)CN1CCN(CC(=O)Nc2ccccc2Cl)CC1 | inconclusive: 1.26 µM [activator, single point] | 
Cc1ccc(NC(=O)CSc2nnc(-c3ccccc3C)o2)cc1C | inconclusive: 1.26 µM [activator, full curve] | 
N#CCCn1c(=O)c(-c2cc(F)cc(F)c2)nc2cnc(Nc3ccccc3)nc21 | inconclusive: 1.58 µM [activator, partial curve] | 
